# Results taken from PubChem BioAssay (NCI).
#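 48-hour exposure; five concentrations; linearly interpolated endpoints. GI50 = concentration required for 50% inhibition of growth. TGI marks complete inhibition of growth.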
# System: NCI-H322M lung
# Assay: inhibition of tumour cell growth, NCI panel, 48 h
Structure (SMILES),GI50,TGI
Cn1cc(-c2cc3nc(-c4cn(C)c5ncccc45)cc(N)n3n2)c2ccccc21,11.6 µM,77.7 µM
COc1ccc(/C=C/c2nc3ccccc3n3c(-c4cccc([N+](=O)[O-])c4)nnc23)cc1,7.09 µM,20 µM
CN1CCN(Cc2ccc(C(=O)Nc3cccc(Nc4ccc5cc(O)ccc5n4)c3)cc2C(F)(F)F)CC1,11 µM,23.4 µM
COc1cccc(-c2nn(-c3ccccc3)cc2-c2ccnc(NCCCNC(=O)Nc3ccc(F)cc3)c2)c1,9.57 µM,> 37 µM
CCN(CC)CCOc1ccc(Nc2ncc3cc(-c4ccc(O)c(C#N)c4)c(=O)n(C)c3n2)cc1,> 100 µM,> 100 µM
CCOC(=O)c1ccc(NC(=O)CSC(CC(=O)c2sc(Nc3ccccn3)nc2C)c2ccccc2F)cc1 (configuration not stated),25.4 µM,> 100 µM
